# According to the supplement of paper PMC8728848:
# Some of the results follow.
# B1: Epa23 (Candida glabrata) (protein)
# chain: MGSSHHHHHHSSGLVPRGSHMIPNPFEGTINNFPSGCSPNHGLYNRGLTMELYNYSYIHPQSIQSYFNTSTLKKMEKGQCWDPSYLDVNYPRTGYKTHNRFAKVNGIDGILDFEFNPTRSCVPSKGQLPQNYNYPLQFTLSNFTMLLYGYFKPKVTAKHTFTIFADDLLFLNFGAGNAFDCCQQQDTIDDFGNYQAYALWGSDTQQNTLTVNLDANIYYPIRMFYNNRDFKGALNMYFTTDESNTKINDFSGYLFNIPDSSEGCPAHISYETECGNVSG
# Tests used:
# Assay in all cases: glycan array binding signal (z-score within array); higher = stronger binding
# Details in all cases: glycan notation: IUPAC condensed, linker removed
# [1] = target: Man(a1-3)[Man(a1-6)]Man(a1-6)[Man(a1-2)Man(a1-3)]Man(b1-4)GlcNAc(b1-4)GlcNAc
# Summary of the method: (§1)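 From the Consortium for Functional Glycomics database, 3228 arrays were curated, keeping only those whose protein sequence was available. Binding is given as a within-array Z-score averaged across arrays sharing a protein sequence and across linkers. Negative Z-scores can be read as non-binding.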
# [2] = target: Man(a1-3)[Man(a1-6)]Man(a1-6)[Man(a1-3)]Man
# Summary of the method: as §1
# [3] = target: Man(a1-3)[Man(a1-6)]Man(a1-6)[Man(a1-3)]Man(b1-4)GlcNAc(b1-4)GlcNAc
# Summary of the method: as §1
# [4] = target: Man(a1-3)[Man(a1-6)]Man(b1-4)GlcNAc(b1-4)GlcNAc
# Summary of the method: as §1
# [5] = target: Man(a1-3)[Man(a1-6)]Man(b1-4)GlcNAc(b1-4)[Fuc(a1-6)]GlcNAc
# Summary of the method: as §1
# [6] = target: Man(a1-6)Man
# Summary of the method: as §1
# [7] = target: Man(b1-4)GlcNAc
# Summary of the method: as §1
# [8] = target: MurNAc(b1-4)GlcNAc
# Summary of the method: as §1
# [9] = target: Neu5Ac(a2-3)Gal
# Summary of the method: as §1
# [10] = target: Neu5Ac(a2-3)Gal(b1-3)GalNAc
# Summary of the method: as §1
# [11] = target: Neu5Ac(a2-3)Gal(b1-3)GalNAc(b1-3)Gal(a1-4)Gal(b1-4)Glc
# Summary of the method: as §1
# [12] = target: Neu5Ac(a2-3)Gal(b1-3)GalNAc(b1-4)[Neu5Ac(a2-3)]Gal(b1-4)Glc
# Summary of the method: as §1
# [13] = target: Neu5Ac(a2-3)Gal(b1-3)GalNAc(b1-4)[Neu5Ac(a2-8)Neu5Ac(a2-3)]Gal(b1-4)Glc
# Summary of the method: as §1
# [14] = target: Neu5Ac(a2-3)Gal(b1-3)GalNAc6S
# Summary of the method: as §1
# [15] = target: Neu5Ac(a2-3)Gal(b1-3)GlcNAc
# Summary of the method: as §1
# [16] = target: Neu5Ac(a2-3)Gal(b1-3)GlcNAc(b1-2)Man
# Summary of the method: as §1
# [17] = target: Neu5Ac(a2-3)Gal(b1-3)GlcNAc(b1-2)Man(a1-3)[GlcNAc(b1-4)][Neu5Ac(a2-3)Gal(b1-3)GlcNAc(b1-2)Man(a1-6)]Man(b1-4)GlcNAc(b1-4)GlcNAc
# Summary of the method: as §1
# [18] = target: Neu5Ac(a2-3)Gal(b1-3)GlcNAc(b1-2)Man(a1-3)[Neu5Ac(a2-3)Gal(b1-3)GlcNAc(b1-2)Man(a1-6)]Man(b1-4)GlcNAc(b1-4)GlcNAc
# Summary of the method: as §1
# [19] = target: Neu5Ac(a2-3)Gal(b1-3)GlcNAc(b1-2)[Neu5Ac(a2-3)Gal(b1-3)GlcNAc(b1-4)]Man(a1-6)[Neu5Ac(a2-3)Gal(b1-3)GlcNAc(b1-2)Man(a1-3)]Man(b1-4)GlcNAc(b1-4)GlcNAc
# Summary of the method: as §1
# [20] = target: Neu5Ac(a2-3)Gal(b1-3)GlcNAc(b1-3)Gal(b1-3)GlcNAc
# Summary of the method: as §1
# [21] = target: Neu5Ac(a2-3)Gal(b1-3)GlcNAc(b1-3)Gal(b1-4)GlcNAc
# Summary of the method: as §1
# [22] = target: Neu5Ac(a2-3)Gal(b1-3)GlcNAc(b1-3)GalNAc
# Summary of the method: as §1
# [23] = target: Neu5Ac(a2-3)Gal(b1-3)GlcNAc(b1-4)Gal(b1-4)Glc
# Summary of the method: as §1
# [24] = target: Neu5Ac(a2-3)Gal(b1-3)GlcNAc(b1-6)GalNAc
# Summary of the method: as §1
# [25] = target: Neu5Ac(a2-3)Gal(b1-3)GlcNAc6S
# Summary of the method: as §1
# [26] = target: Neu5Ac(a2-3)Gal(b1-3)[Fuc(a1-4)]GlcNAc
# Summary of the method: as §1
# [27] = target: Neu5Ac(a2-3)Gal(b1-3)[Fuc(a1-4)]GlcNAc(b1-3)Gal(b1-3)[Fuc(a1-4)]GlcNAc
# Summary of the method: as §1
# [28] = target: Neu5Ac(a2-3)Gal(b1-3)[Fuc(a1-4)]GlcNAc(b1-3)Gal(b1-4)[Fuc(a1-3)]GlcNAc
# Summary of the method: as §1
# [29] = target: Neu5Ac(a2-3)Gal(b1-3)[GlcNAc(b1-6)]GalNAc
# Summary of the method: as §1
# [30] = target: Neu5Ac(a2-3)Gal(b1-3)[Neu5Ac(a2-6)]GalNAc
# Summary of the method: as §1
# [31] = target: Neu5Ac(a2-3)Gal(b1-3)[Neu5Ac(a2-6)]GlcNAc(b1-3)[Fuc(a1-3)[Gal(b1-4)]GlcNAc(b1-6)]Gal(b1-4)Glc
# Summary of the method: as §1
# [32] = target: Neu5Ac(a2-3)Gal(b1-3)]Neu5Ac(a2-3)Gal(b1-4)]GlcNAc
# Summary of the method: as §1
# [33] = target: Neu5Ac(a2-3)Gal(b1-4)Glc
# Summary of the method: as §1
# [34] = target: Neu5Ac(a2-3)Gal(b1-4)GlcNAc
# Summary of the method: as §1
# [35] = target: Neu5Ac(a2-3)Gal(b1-4)GlcNAc(b1-2)Man
# Summary of the method: as §1
# [36] = target: Neu5Ac(a2-3)Gal(b1-4)GlcNAc(b1-2)Man(a1-3)[GlcNAc(b1-4)][Neu5Ac(a2-3)Gal(b1-4)GlcNAc(b1-2)Man(a1-6)]Man(b1-4)GlcNAc(b1-4)GlcNAc
# Summary of the method: as §1
# [37] = target: Neu5Ac(a2-3)Gal(b1-4)GlcNAc(b1-2)Man(a1-3)[Neu5Ac(a2-3)Gal(b1-4)GlcNAc(b1-2)Man(a1-6)]Man(b1-4)GlcNAc(b1-4)GlcNAc
# Summary of the method: as §1
# [38] = target: Neu5Ac(a2-3)Gal(b1-4)GlcNAc(b1-2)Man(a1-3)[Neu5Ac(a2-3)Gal(b1-4)GlcNAc(b1-2)Man(a1-6)]Man(b1-4)GlcNAc(b1-4)[Fuc(a1-6)]GlcNAc
# Summary of the method: as §1
binder,measurement,setting,value
B1,glycan array binding signal (z-score),[1],-0.22
same,glycan array binding signal (z-score),[2],-0.232
same,glycan array binding signal (z-score),[3],-0.21
same,glycan array binding signal (z-score),[4],-0.225
same,glycan array binding signal (z-score),[5],-0.198
same,glycan array binding signal (z-score),[6],-0.207
same,glycan array binding signal (z-score),[7],-0.172
same,glycan array binding signal (z-score),[8],-0.274
same,glycan array binding signal (z-score),[9],-0.238
same,glycan array binding signal (z-score),[10],-0.185
same,glycan array binding signal (z-score),[11],-0.203
same,glycan array binding signal (z-score),[12],-0.24
same,glycan array binding signal (z-score),[13],-0.238
same,glycan array binding signal (z-score),[14],-0.246
same,glycan array binding signal (z-score),[15],-0.163
same,glycan array binding signal (z-score),[16],-0.265
same,glycan array binding signal (z-score),[17],-0.083
same,glycan array binding signal (z-score),[18],-0.212
same,glycan array binding signal (z-score),[19],-0.189
same,glycan array binding signal (z-score),[20],-0.262
same,glycan array binding signal (z-score),[21],-0.265
same,glycan array binding signal (z-score),[22],-0.227
same,glycan array binding signal (z-score),[23],-0.225
same,glycan array binding signal (z-score),[24],-0.214
same,glycan array binding signal (z-score),[25],-0.187
same,glycan array binding signal (z-score),[26],-0.296
same,glycan array binding signal (z-score),[27],-0.255
same,glycan array binding signal (z-score),[28],-0.177
same,glycan array binding signal (z-score),[29],-0.257
same,glycan array binding signal (z-score),[30],-0.205
same,glycan array binding signal (z-score),[31],-0.149
same,glycan array binding signal (z-score),[32],-0.258
same,glycan array binding signal (z-score),[33],-0.17
same,glycan array binding signal (z-score),[34],-0.194
same,glycan array binding signal (z-score),[35],-0.139
same,glycan array binding signal (z-score),[36],-0.24
same,glycan array binding signal (z-score),[37],-0.249
same,glycan array binding signal (z-score),[38],-0.163
